Whole data set: some 33,000 sequences, median “E-score (-0.5 to 0.5)” near -0.012, cut for the highest 2% near 0.27. The list shows a part of the results.
target: T1, Vhr1 (UniProt P40522); experiment: PBM E-score (8-mer binding enrichment) (E-score (-0.5 to 0.5)); higher = stronger / more preferred TF binding; most listed sequences are background and not binding sites; conditions: protein concentration: 200 nM; construct: GST-full length
T1 sequence: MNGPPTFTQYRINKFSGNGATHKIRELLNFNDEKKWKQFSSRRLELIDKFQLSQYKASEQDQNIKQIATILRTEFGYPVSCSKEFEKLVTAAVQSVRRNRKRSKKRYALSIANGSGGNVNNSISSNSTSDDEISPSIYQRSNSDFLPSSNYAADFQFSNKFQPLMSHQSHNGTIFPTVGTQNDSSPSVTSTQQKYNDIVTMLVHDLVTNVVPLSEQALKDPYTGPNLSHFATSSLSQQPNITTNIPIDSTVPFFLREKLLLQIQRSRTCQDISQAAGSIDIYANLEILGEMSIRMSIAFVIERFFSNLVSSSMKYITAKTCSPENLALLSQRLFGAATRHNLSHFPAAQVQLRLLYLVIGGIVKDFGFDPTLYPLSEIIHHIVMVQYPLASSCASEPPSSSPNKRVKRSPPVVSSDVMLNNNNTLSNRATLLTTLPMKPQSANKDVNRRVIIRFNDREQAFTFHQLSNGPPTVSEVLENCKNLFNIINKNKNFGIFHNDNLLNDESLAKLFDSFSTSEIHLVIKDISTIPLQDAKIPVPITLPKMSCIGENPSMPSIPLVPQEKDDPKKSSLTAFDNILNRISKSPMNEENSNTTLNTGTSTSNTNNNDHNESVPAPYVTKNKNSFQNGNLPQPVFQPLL
How it was run: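 Full-length yeast transcription factors or their DNA-binding domains, GST-tagged and expressed with PURExpress, were applied at about 100-200 nM to universal all-10-mer Agilent arrays. These arrays had been made double-stranded by primer extension on fresh or once-stripped slides. Detection used fluorescent anti-GST, normalisation used masliner, and E-scores for ungapped eight-base words pooled with reverse complements came from the Universal PBM Analysis Suite.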

| Sequence | PBM E-score |
| --- | --- |
| ATGAATGC | 0.0712 |
| CTCATAAC | 0.00985 |
| ATGACAAT | -0.0432 |
| AATTTCTG | -0.194 |
| GAGCATAA | -0.00172 |
| AAATTTAA | -0.0182 |
| ATACGTAG | 0.021 |
| GTTCTGCA | -0.0901 |
| CCGTGCTA | -0.0852 |
| ACTCAGCC | 0.151 |
| TCTCGTAA | -0.0557 |
| GTATTCAC | -0.0445 |
| CCCAGTCG | -0.0314 |
| ATGCTACG | 0.116 |
| AAACGTAC | -0.109 |
| ACATGAAC | 0.101 |
| ATCACAGG | 0.135 |
| TGCTCCAA | 0.0362 |
| CCATAGGC | -0.172 |
| ACGAGCTG | 0.163 |
| CAAGCGCA | 0.143 |
| CTTCTGAC | -0.123 |

| Sequence | PBM E-score |
| --- | --- |
| GGGAAGAA | -0.0968 |
| ACACAAGG | 0.0446 |
| ATAGGTCG | 0.125 |
| ATCCTGCG | -0.0823 |
| TCCTTCCA | -0.0415 |
| CATTATTC | 0.133 |
| CGAAGACC | 0.105 |
| AGTCGCCA | 0.233 |
| CTCTTAAG | -0.19 |
| ATCCCCGG | -0.09 |
| CTTTGAGC | -0.264 |
| ATGCCCAT | -0.0186 |
| ACTGCACA | -0.0147 |
| CATCGTCG | -0.044 |
| CTTGAGAC | -0.248 |
| CATGACCG | 0.0167 |
| CACGAATG | 0.124 |
| ACGCCTTC | -0.251 |
| AGACCTCT | -0.143 |
| ATAGGTAA | 0.0149 |
| ACTGCACT | -0.00619 |
| CGCAAAAC | 0.042 |

| Sequence | PBM E-score |
| --- | --- |
| CTCACCGC | 0.207 |
| GCACCCGC | -0.0344 |
| AGGGTGAT | 0.163 |
| CGAATCGC | 0.164 |
| AGTTAATA | 0.216 |
| AGACAGCT | -0.0952 |
| TCTTAAGA | -0.051 |
| AAATCGGG | -0.0685 |
| ATATCTAA | 0.0519 |
| CTCGGAGA | -0.0274 |
| GTCAGATA | 0.0217 |
| ACGCTCAC | 0.0787 |
| GATACAGC | -0.00349 |
| CTGATTGC | 0.035 |
| AAGAGCCT | -0.214 |
| ATGCTAAG | -0.0834 |
| AACGTGTG | -0.122 |
| CTCCAATC | 0.0374 |
| GCCCAACC | 0.0849 |
| CAGACACG | 0.0686 |
| ATATTGTC | 0.0611 |
| ACCTTTCA | -0.196 |

| Sequence | PBM E-score |
| --- | --- |
| GACGATCC | 0.0947 |
| ACGCGGCG | 0.0974 |
| CTATGGGA | -0.189 |
| AAGTGCCC | -0.0905 |
| AGAACAGC | -0.0119 |
| ATCATAGC | 0.218 |
| GAACTACC | -0.0176 |
| GAACACGC | 0.0339 |
| CTGCTGAC | 0.254 |
| CTAATCTA | -0.115 |
| GTCCTAGA | -0.31 |
| TGACGTCA | 0.0832 |
| AAACCATG | 0.214 |
| AACCCGCT | -0.172 |
| ACTGAATA | 0.0125 |
| AGAGACCA | 0.0342 |
| AACGACTA | 0.0488 |
| TCCGGCAA | 0.14 |
| CGAGGTAA | -0.0995 |
| CTTAGGTA | -0.0978 |

Source: the supplement of paper PMC3334620
